In PubChem BioAssay AID485294 (National Center for Advancing Translational Sciences (NCATS), 2010):
Screen size: about 370,000 compounds; about 150 (0.041%) were called active. This list was built around the results that the source calls inconclusive (neither active nor inactive); the mix of calls is not that of the screen. Calls come from the whole dose curve; as a rule, active = well fitted inhibition curve with a large enough effect; inconclusive = small, poorly fitted or top-dose-only effect; inactive = flat fitted curve, though single readings scatter. Potencies of inconclusive entries are left out as doubtful fits.

target: Beta-lactamase (Escherichia coli (strain K12)) (UniProt P00811); test: qHTS Inhibitors of AmpC Beta-Lactamase (assay with detergent); conditions: AmpC hydrolysis of nitrocefin, absorbance 480 nm, 0.01% Triton; series mostly up to 114 µM; note: nearly all actives have a fitted effect of over 25% in size
How it was run: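 20 mM phosphate pH 7.0 + 0.01% (detergent screen) or 0.0001% Triton X-100; 5.3 nM AmpC reagent; cpd preinc 15 min RT; nitrocefin (800 uM stock) to start; A480 q20 s × 4 min; Activity was normalised to no-enzyme and no-compound control wells.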
Potency is the fitted concentration of half-maximal effect; tags give direction and shape of the fitted curve.

Sequence of UniProt P00811 (P00811 whole entry, looked up): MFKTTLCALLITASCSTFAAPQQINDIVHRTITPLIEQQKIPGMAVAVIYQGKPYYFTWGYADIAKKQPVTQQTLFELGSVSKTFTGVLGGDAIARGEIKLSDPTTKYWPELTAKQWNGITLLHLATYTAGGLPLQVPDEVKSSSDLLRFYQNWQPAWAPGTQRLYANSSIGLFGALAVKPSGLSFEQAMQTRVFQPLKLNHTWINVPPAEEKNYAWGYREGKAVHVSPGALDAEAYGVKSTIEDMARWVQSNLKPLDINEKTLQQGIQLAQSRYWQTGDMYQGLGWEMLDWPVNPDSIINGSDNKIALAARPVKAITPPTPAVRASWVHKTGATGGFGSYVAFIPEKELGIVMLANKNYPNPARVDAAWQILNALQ

SMILES | Potency
CCOC(=O)CSc1nnc(NC(=O)c2cc([N+](=O)[O-])cc([N+](=O)[O-])c2)s1 | inconclusive [inhibitor, full curve, poor fit]
CCOC(=O)C1=C(C)OC(N)=C(C#N)C1c1cc2c(cc1Br)OCO2 (centres undefined) | inconclusive [inhibitor, full curve, poor fit]
CCCCn1c(=N)n(CCCOc2ccc(F)cc2)c2ccccc21 | inactive
CC1(C)C=C(c2ccc(O)cc2)CC(C)(C)N1 | inconclusive [inhibitor, full curve]
c1ccc(Cn2ncc3c(N4CCN(C(c5ccccc5)c5ccccc5)CC4)ncnc32)cc1 | inconclusive [inhibitor, full curve, poor fit]
O=C(c1ccc2c3c(cccc13)CC2)C1CCCN(Cc2ccncc2)C1 (centres undefined) | inactive
COc1ccccc1Nc1ncnc2c1c(C)c(C)n2CCO | inconclusive [inhibitor, full curve, poor fit]
CCN1CCN(c2ccc([N+](=O)[O-])c(Sc3nc4ccccc4[nH]3)c2)CC1 | inactive
COc1cc2c(cc1OC)CN(C(=O)Nc1ccccc1)CC2 | inconclusive [inhibitor, full curve, poor fit]
CCc1nc(SCC(=O)Nc2ccccc2C)n[nH]1 | inconclusive [inhibitor, full curve, poor fit]
COc1ccccc1NC(=O)NCCCCc1ccccc1 | inactive
COc1ccc(/C=C/C(=O)OC(C)C(=O)c2ccccc2)cc1OC (centres undefined) | inconclusive [inhibitor, partial curve, poor fit]
COc1ccc(Cn2nnnc2CN(Cc2cc3cc(C)ccc3[nH]c2=O)C2CCCC2)cc1 | inconclusive [inhibitor, partial curve]
CC1Cc2nc(SCC(=O)NCCc3ccccc3)n(C)c(=O)c2S1 (centres undefined) | inconclusive [inhibitor, full curve, poor fit]
O=C1c2oc3ccc(Cl)cc3c(=O)c2C(c2ccco2)N1CCN1CCOCC1 (centres undefined) | inactive
Cc1cc(F)ccc1S(=O)(=O)Nc1ncnc2sc3c(c12)CCC3 | inconclusive [inhibitor, full curve, poor fit]
COc1ccc([C@H]2CC(=O)C=C(c3ccc(F)cc3OCc3ccccc3)C2)cc1OC | inactive
COc1ccc(CC(=O)Nc2cccc(Cl)c2C)cc1S(=O)(=O)N1CCOCC1 | inconclusive [inhibitor, single point]
COc1cc(Br)cc(CN2CCN(C=O)CC2)c1O | inconclusive [inhibitor, full curve, poor fit]
